From PubChem BioAssay AID485281 (National Center for Advancing Translational Sciences (NCATS), 2010)
Several values for one entry are separate records, joined by “and”; a condition that tells them apart may be missing. Equal values may be shown once. About 260 (0.074%) of roughly 350,000 compounds were called active. The shares of active, inactive and inconclusive entries below differ from those in the screen. Calls follow the shape of the dose curve; as a rule, active = well fitted inhibition curve with a large enough effect; inconclusive = small, poorly fitted or top-dose-only effect; inactive = no such curve, though single readings can be large or run the other way. Potencies of inconclusive entries are doubtful fits and often do not repeat.

These molecules were tested against Ferritin light chain (Equus caballus) (UniProt P02791) (assay: qHTS Assay for Identification of Novel General Anesthetics). Settings: apoferritin/1-aminoanthracene competitive binding, fluorescence; series mostly up to 77.5 µM.
Sequence of UniProt P02791 (P02791 whole entry, looked up): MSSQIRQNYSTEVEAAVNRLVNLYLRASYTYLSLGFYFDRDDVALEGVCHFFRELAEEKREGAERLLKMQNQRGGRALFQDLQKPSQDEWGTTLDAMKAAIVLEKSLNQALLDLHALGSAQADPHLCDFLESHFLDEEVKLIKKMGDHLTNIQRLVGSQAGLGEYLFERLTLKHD
Summary of the method: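 Steps: apoferritin (10 uM) was premixed with half-saturated 1-AMA in PBS, compounds were pin-transferred, plates stood 10 min at room temperature, fluorescence was read at 380/535 nm, and curves were fitted with a Hill equation.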
Also: nearly all actives have a fitted effect of over 20% in size.
Potency is read from the fitted curve at half-maximal effect; tags tell the direction and shape of the fitted curve.

SMILES	Potency
Nn1cc(-c2ccccc2)nc1SCC(=O)NCCc1ccccc1	inconclusive: 22.4 µM [inhibitor, partial curve]
COc1cccc(-c2nc(CS(=O)(=O)CC(=O)NC3CCCc4ccccc43)c(C)o2)c1 (stereo not drawn)	inconclusive: 10 µM [inhibitor, partial curve]
O=C(CC(=O)NC1CCCCC1)N/N=C/c1cccc2ccccc12	inconclusive: 3.98 µM [inhibitor, full curve]
CCCN(CCC)C(=O)c1ccc2c(=O)n(Cc3ccco3)c(=S)[nH]c2c1	inconclusive: 28.2 µM [inhibitor, partial curve]
Cc1ccc(Sc2ccc(NC(=O)CCl)cc2)c(C)c1	inconclusive: 12.6 µM [inhibitor, partial curve]
Cc1ccccc1N(CC(=O)N/N=C/c1ccc(F)cc1)C(=O)c1ccccc1	inactive
Cc1cc(C)n2nc(C(=O)OCCOc3ccc(Br)cc3)nc2n1	inconclusive: 35.5 µM [inhibitor, partial curve]
NC(=O)c1ccc[n+](CC(=O)OCCC23CC4CC(CC(C4)C2)C3)c1	inconclusive: 31.6 µM [inhibitor, partial curve]
O=C(Nc1nnc(-c2ccccc2Cl)o1)c1ccc(S(=O)(=O)N2CCCCCC2)cc1	inactive
O=C(Nc1nc2c(s1)CCCC2)c1cc2n(n1)C(C(F)(F)F)CC(C1CC1)N2 (stereo not drawn)	inconclusive: 50.1 µM [inhibitor, single point]
O=c1[nH]c2cc(Cl)c(O)cc2o1	inactive
C=CCN(CC=C)C(=O)C1CCN(Cc2ccc(OCc3ccccc3)cc2)CC1	inconclusive: 15.8 µM [inhibitor, partial curve]
Cc1ccc(Nc2nc(N3CCOCC3)nc(N3CCOCC3)n2)cc1C	inactive
CC(NC(=O)COC(=O)c1ccc(N(C)C)cc1)c1ccccc1 (stereo not drawn)	inconclusive: 22.4 µM [inhibitor, partial curve]
COc1ccc(-c2noc(CSc3ccccc3)n2)cc1OC	inactive
CC1=CC(C)(C)NC(=S)N1c1cccc2cc(S(=O)(=O)O)ccc12	inactive
O=C(N1CCN(Cc2ccc3c(c2)OCO3)CC1)C12CC3CC(CC(C3)C1)C2	inconclusive: 25.1 µM [inhibitor, partial curve]
Oc1ccc(/C=N/N=C(c2ccccc2)c2ccccc2)c(O)c1O	inconclusive: 50.1 µM [inhibitor, single point]
Cc1ccc(-n2nc3c(=O)n(C(C)C(=O)NCc4ccc(OC(C)C)cc4)nc(C)c3c2C)cc1 (stereo not drawn)	inconclusive: 35.5 µM [inhibitor, single point]
Cc1cc(NC(=O)CCNS(=O)(=O)c2cc(Br)cnc2N)ccc1Br	inconclusive: 31.6 µM [inhibitor, partial curve]
Fc1cccc(Cl)c1CSc1nnc(CNc2ccccc2)o1	inconclusive: 8.91 µM [inhibitor, partial curve]
COc1ccc(NS(=O)(=O)c2ccc(-c3cnc(C4CC4)o3)cc2)cc1OC	inactive
CCCCNC(=S)NC(=O)c1ccc(Cl)cc1Cl	inconclusive: 11.2 µM [inhibitor, partial curve]

SMILES	Potency
Cc1ccc(CNC(=O)CCC(=O)Nc2nnc(C3CCCCC3)s2)cc1	inactive
CCCc1cc(=O)oc2c3c(c4c(c12)OC(C)(C)C=C4)OC(C)C(C)C3O (stereo not drawn)	inconclusive: 15.8 µM [inhibitor, partial curve]
O=C(CC1SCCNC1=O)Nc1cccc(C(F)(F)F)c1 (stereo not drawn)	inconclusive: 28.2 µM [inhibitor, partial curve]
Cc1cccc(OCC(=O)Nc2ccccc2F)c1	inactive
COc1ccccc1NC(=O)N1CCCC(c2nc3c(nnn3Cc3ccc(C)cc3)c(=O)[nH]2)C1 (stereo not drawn)	inconclusive: 1.12 µM [inhibitor, full curve]
Cc1ccc(C)c(CNS(=O)(=O)c2ccc3c(c2)C(C)(C)C(=O)N3C)c1	inactive and inconclusive: 25.1 µM [inhibitor, single point]
O=C(c1ccc(S(=O)(=O)N2CCOCC2)cc1)N(Cc1ccco1)Cc1cccs1	inconclusive: 50.1 µM [inhibitor, partial curve]
CCN(Cc1ccccc1)c1ccc(/C=N/NS(=O)(=O)c2cccc([N+](=O)[O-])c2)cc1	inconclusive: 28.2 µM [inhibitor, partial curve, poor fit]
O=C(CCCCn1c(=O)[nH]c2ccsc2c1=O)N1CCN(c2cccc(C(F)(F)F)c2)CC1	inactive
COc1cccc(NC(=O)CNC(=O)Cn2cnc3sc4c(c3c2=O)CCCC4)c1	inconclusive: 15.8 µM [inhibitor, partial curve]
Cc1ccc(NC(=O)c2ccccc2)cc1	inactive
O=S(=O)(c1ccccc1)N1CCC(O)(CSc2ccc(Cl)cc2)CC1	inactive
Cc1ccc(OCC(=O)N2CCCCCCC2)cc1	inconclusive: 35.5 µM [inhibitor, partial curve]
NNC(=O)c1cccn(Cc2cccc(C(F)(F)F)c2)c1=O	inconclusive: 8.91 µM [inhibitor, full curve]
COc1ccc(-c2cc(C(F)(F)F)n3nc(C(=O)Nc4cc(C(F)(F)F)ccc4Cl)cc3n2)cc1OC	inactive
COc1ccc(Cn2ccnc2SCC(=O)Nc2ccc3c(c2)OCO3)cc1	inconclusive: 50.1 µM [inhibitor, single point]
COc1ccc(OC)c(NC(=O)c2oc3c(c2C)C(O)CC(C)(C)C3)c1 (stereo not drawn)	inconclusive: 25.1 µM [inhibitor, single point]
CN(C)c1cccc(NC(=O)Cc2ccc(F)cc2)c1	inconclusive: 35.5 µM [inhibitor, partial curve]
CCc1ccc(/C=N/NC(=O)c2c[nH]c3ccccc23)s1	inactive
O=[N+]([O-])c1cc(S(=O)(=O)Nc2ccccc2)ccc1-n1nnc2ccccc21	inconclusive: 25.1 µM [inhibitor, partial curve]
CCCCNC(=O)Nc1ccc(Br)cn1	inconclusive: 35.5 µM [inhibitor, partial curve]
CCCN1CCN(C(=O)C2CCN(S(=O)(=O)c3c(C)noc3/C=C/c3ccc(C)cc3)CC2)CC1	inconclusive: 35.5 µM [inhibitor, partial curve]
Cc1cccc(C)c1NC(=O)c1nc(S(C)(=O)=O)ncc1N(Cc1ccc(C(C)(C)C)cc1)Cc1ccco1	inconclusive: 6.31 µM [inhibitor, full curve]

SMILES	Potency
NNC(=O)c1sccc1OCc1ccc(F)cc1	inconclusive: 35.5 µM [inhibitor, partial curve]
CCOc1ccccc1Nc1ccnc2cc(Cl)ccc12	inactive
Cc1ccc(CC2S/C(=C(/C#N)C(=O)NCc3ccco3)N(c3ccccc3)C2=O)cc1 (stereo not drawn)	inconclusive: 39.8 µM [inhibitor, partial curve]
Cc1ccc(C)c(NS(=O)(=O)c2cc(C(=O)N3CCc4ccccc4C3)ccc2Cl)c1	inconclusive: 3.55 µM [inhibitor, full curve]
CN(C)c1cc[n+](CC(=O)c2ccc(-c3ccccc3)cc2)cc1	inactive
OC1CCCN(C(=S)Nc2ccc(SC(F)F)cc2)C1 (stereo not drawn)	inconclusive: 56.2 µM [inhibitor, single point]
COc1cc(C(=O)Nc2ccc(C(=O)c3cccs3)cc2)cc(OC)c1OC	inconclusive: 25.1 µM [inhibitor, partial curve]
O=C(CN1C(=O)NC2(CCCC2)C1=O)OCCOc1ccccc1	inconclusive: 31.6 µM [inhibitor, partial curve]
CC(=O)c1ccc(OCC(O)CN2CCN(S(=O)(=O)c3c(C)c(C)cc(C)c3C)CC2)cc1 (stereo not drawn)	inactive
O=C(NCc1cnc2ccccn12)C1CCC(=O)N(Cc2ccccc2F)C1 (stereo not drawn)	inactive
CCN(CC)CCNC(=O)c1ccc(NC(=O)c2cccc(S(=O)(=O)Nc3ccc(C)cc3)c2)cc1	inconclusive: 28.2 µM [inhibitor, partial curve]
COc1ccccc1N=C1NC(=O)/C(=C/c2ccc(N(C)C)cc2)S1	inactive
N#Cc1c[nH]n2c(NC3CCCC3)c(-c3cccc(Br)c3)nc12	inconclusive: 31.6 µM [inhibitor, partial curve]
O=C(CSc1ccc(-c2cccc([N+](=O)[O-])c2)nn1)N1CCCCCC1	inconclusive: 7.08 µM [inhibitor, partial curve]
Cc1ccc(S(=O)(=O)NCC(=O)N/N=C/c2ccc(Cl)cc2Cl)cc1	inconclusive: 35.5 µM [inhibitor, single point]
NC(=O)C1CC(=O)N(c2ccc(OCc3ccc(F)cc3)cc2)C1 (stereo not drawn)	inconclusive: 20 µM [inhibitor, partial curve]
COc1ccc(C(C)=O)cc1CN1C(=O)NC2(CCCCCCC2)C1=O	inconclusive: 31.6 µM [inhibitor, partial curve]
Cc1ccc(NC(=O)N2CC3CCCN3c3ccccc32)cc1C (stereo not drawn)	inconclusive: 15.8 µM [inhibitor, partial curve]
CCOC(=O)N1CCN(S(=O)(=O)c2ccc(F)c(C(=O)Nc3ccc(C(C)C)cc3)c2)CC1	inconclusive: 31.6 µM [inhibitor, partial curve]
COc1ccc(S(=O)(=O)N(C(=O)C(C)C)c2ccc3oc(=O)sc3c2)cc1	inconclusive: 2 µM [inhibitor, full curve, poor fit]
COc1cc(/C=N/N(c2ccccc2)c2ccccc2)ccc1O	inactive
CCn1c(/C=C/N(C(C)=O)c2ccccc2)[n+](CC)c2ccc(Cl)cc21	inactive
